According to paper PMC4336329 (PLoS ONE, 2015):
The campaign covered roughly 310,000 compounds. About 14,000 (4.5%) showed an effect of 50% or more. The effect is printed as a negative number. The list shows a part of the results.

Molecular target: human ether-à-go-go-related gene (hERG) potassium channel (human, UniProt Q12809)
Assay: primary screen, population patch clamp on CHO cells stably expressing hERG
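Further: peak tail current of the secondary pulse compared with the same well before compound.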

Chain of human ether-à-go-go-related gene (hERG) potassium channel (Q12809 whole entry, looked up): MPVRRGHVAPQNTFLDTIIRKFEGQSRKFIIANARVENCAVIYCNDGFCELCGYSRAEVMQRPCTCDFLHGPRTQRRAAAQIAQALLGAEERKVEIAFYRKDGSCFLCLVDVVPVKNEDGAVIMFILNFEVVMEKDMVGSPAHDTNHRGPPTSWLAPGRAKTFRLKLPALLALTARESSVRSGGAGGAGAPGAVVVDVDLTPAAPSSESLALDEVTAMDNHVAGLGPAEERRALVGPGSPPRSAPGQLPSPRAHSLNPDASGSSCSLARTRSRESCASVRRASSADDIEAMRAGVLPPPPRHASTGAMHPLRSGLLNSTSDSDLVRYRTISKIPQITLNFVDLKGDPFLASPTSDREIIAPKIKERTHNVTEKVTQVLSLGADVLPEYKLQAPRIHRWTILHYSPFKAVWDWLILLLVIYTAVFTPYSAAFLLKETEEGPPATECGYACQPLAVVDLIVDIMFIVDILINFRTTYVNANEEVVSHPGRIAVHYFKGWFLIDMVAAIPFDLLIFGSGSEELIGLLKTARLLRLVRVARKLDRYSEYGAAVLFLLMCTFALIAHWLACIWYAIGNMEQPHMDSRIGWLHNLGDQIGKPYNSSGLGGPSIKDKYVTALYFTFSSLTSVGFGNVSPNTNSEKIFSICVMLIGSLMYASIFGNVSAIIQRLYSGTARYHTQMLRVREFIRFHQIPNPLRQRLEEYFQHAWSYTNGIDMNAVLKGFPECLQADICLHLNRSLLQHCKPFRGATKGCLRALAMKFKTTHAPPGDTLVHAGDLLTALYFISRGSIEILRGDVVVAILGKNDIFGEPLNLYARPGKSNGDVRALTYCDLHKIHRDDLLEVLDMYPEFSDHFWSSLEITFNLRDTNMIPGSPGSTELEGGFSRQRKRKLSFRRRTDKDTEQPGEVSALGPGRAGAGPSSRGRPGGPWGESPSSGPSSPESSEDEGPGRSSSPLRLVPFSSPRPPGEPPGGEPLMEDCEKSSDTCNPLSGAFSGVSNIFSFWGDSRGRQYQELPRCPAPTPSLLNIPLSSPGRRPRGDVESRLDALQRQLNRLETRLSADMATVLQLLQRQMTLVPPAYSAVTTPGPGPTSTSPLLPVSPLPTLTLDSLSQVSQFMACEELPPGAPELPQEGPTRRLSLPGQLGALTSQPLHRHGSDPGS

SMILES	hERG current change (%, negative = inhibition) at 10uM [%]
COC(=O)C1CCN(CC(=O)Nc2ccc(OC)c(Cl)c2)CC1	13.1
O=C(NCc1ccccc1)N(Cc1cc2cc3c(cc2[nH]c1=O)OCO3)CC1CCCO1 (stereo not shown)	12.7
CC(C)c1nnc(NC(=O)CCC(=O)N2CCN(C3CCCCC3)CC2)s1	-0.653
COc1cccc(-c2ccc(C#N)c(=O)[nH]2)c1	5.06
O=C(CC1Sc2ccccc2NC1=O)NCc1ccc(Cl)cc1 (stereo not shown)	13.7
COc1ccc([C@@H]2[C@@H]3C(=O)N(C(C)(C)C)C(=O)[C@@H]3[C@]3(Cc4ccc(Cl)cc4)C(=O)N(c4cccc(F)c4)C(=O)N23)cc1	11.2
COc1ccc(NC(=S)N2CCC(Cc3ccccc3)CC2)cc1OC	-45.3
CCOc1ccc(N(CC(=O)NCc2ccc(F)cc2)C(=O)c2ccco2)cc1	-54.6
N/C(Cc1nc(-c2ccc(Cl)cc2)cs1)=N/O	10
C(=N\N(c1ccccc1)c1ccccc1)/c1ccc2c(c1)OCO2	4.28
CC(NC(=O)Nc1ccccc1)c1ccccc1 (stereo not shown)	3.06
COc1cccc(C2C(C#N)=C(N)Oc3c2oc(CO)cc3=O)c1 (stereo not shown)	1.6
CC1CCN(CC(=O)Nc2ccc(Br)cc2[N+](=O)[O-])CC1	19.6
CC(C)NC(=O)COC(=O)c1ccc(Cl)c(S(=O)(=O)N2CCCC2)c1	-11
CN(Cc1nc2ccc(F)cc2[nH]1)Cc1nc(CC2CC2)no1	-12.3
Cc1ccc(NC(=O)CNC(C)c2ccccc2)cc1.Cl (stereo not shown)	9.68
COc1ccc2nc3oc(C(=O)N4CC(C)CC(C)C4)cc3cc2c1 (stereo not shown)	-9.5
Cc1ncc([N+](=O)[O-])n1CCOC(=O)Nc1ccc([N+](=O)[O-])cc1	-5.42
O=C(c1ccco1)N1CCN(C(=O)c2cc(-c3ccc(F)cc3)no2)CC1	-65.1
Cc1ccc(CN2CCC(c3nc4ccc(Cl)cc4[nH]3)CC2)cc1	-83
C/C(CC(=O)Nc1ccc2c(c1)OCCO2)=N\NC(=O)c1ccc([N+](=O)[O-])cc1Cl	-5.37
O=C(Nc1c(C(=O)N2CCCCC2)cnn1-c1ccccc1)c1ccco1	13.4
COc1ccc(CCC(=O)N2CCN(C(=O)c3ccccc3)CC2)cc1	5.76
CN(C)CCCNC(=S)NCC(c1ccc(Cl)cc1Cl)c1c[nH]c2ccccc12 (stereo not shown)	-19.2
CN(Cc1ccccc1)C(=O)CSc1nc2cc(C(=O)N3CCC(C(N)=O)CC3)ccc2c(=O)n1-c1ccccc1	-3.37
COC(=O)c1ccccc1NC(=S)N(Cc1ccc2c(c1)OCO2)Cc1cc2cc(OC)ccc2[nH]c1=O	8.29
Cc1cc(=O)n2nc(N3CCCC(C(=O)NCc4ccccc4Br)C3)sc2n1 (stereo not shown)	-2.93
Cc1ccc(C)c(N2CCN(C(=O)CSc3ccsc3[N+](=O)[O-])CC2)c1	-7.96

SMILES	hERG current change (%, negative = inhibition) at 10uM [%]
COc1ccc(C)cc1NC(=S)N1CCN(S(C)(=O)=O)CC1	14.6
Cc1cccc(NC(=S)NCCN(C2CCCCC2)C2CCCC2)c1	-70.3
Cc1cc(C)cc(NC(=O)Nn2cnnc2)c1	28.4
CCCN1CCN(S(=O)(=O)c2c(C)[nH]c(C)c2C(=O)N2CCCCC2)CC1	1.38
CCOc1cc(C(=O)Nc2cccc(OCC(=O)N3CCOCC3)c2)cc(OCC)c1OCC	15.1
CC(=O)NCc1ccc(S(=O)(=O)N/N=C/c2ccc(N(C)C)cc2)cc1	4.06
CCn1c(SCC(=O)N/N=C(\C)c2ccncc2)nnc1-c1ccccc1	-3.4
COc1ccc(-n2c(C)cc(/C=C3\SC(=O)NC3=O)c2C)cc1	11.7
CCOC(=O)c1c(NC(=O)COC(=O)c2cnccn2)sc(C(=O)NC)c1C	-9.73
CSc1nc2nc3c(cn2n1)C(=O)CC(c1ccccc1)C3 (stereo not shown)	-5.67
CC(=O)Oc1ccc(/C=N/NS(=O)(=O)c2ccccc2)cc1	-4.37
O=C(NCc1nnc(SCC(=O)N2CCCC2)o1)c1ccco1	-7.2
COc1ccc(/C=C/C(=O)NCCCN2CCCC2)cc1	-44.5
COc1ccccc1NC(=S)NCc1ccc(S(N)(=O)=O)cc1	2.57
O=C(Nc1ccc(N=Nc2ccccc2)cc1)c1cccc(Cl)c1	-0.566
COc1ccc(CCNC(=S)NCc2ccc(Cl)c(Cl)c2)cc1OC	14.5
CC1=NN(c2ccccc2)C(=O)/C1=C\C=C1/N(C)c2ccccc2C1(C)C	-8.23
Cc1cc(C)c(C(N)=O)c(NC(=O)Nc2ccccc2)n1	5.72
Cc1ccccc1OCCNc1cc(N2CCNCC2)ccc1[N+](=O)[O-]	-4.38
CCCn1nnnc1-c1cccc(Cl)c1	-12.4
CCCNC(=O)c1ccc2c(=O)n3c(-c4ccc(C)cc4)csc3nc2c1	5.26
Cc1cccc(OCc2nnc(SCC(=O)Nc3ccc(N4CCOCC4)cc3)o2)c1	9.68
CNC(=O)c1cc(S(=O)(=O)NCc2ccncc2)ccc1OC	4.36
C[N+](C)(CCCCCC[N+](C)(C)CCCN1C(=O)c2cccc3cccc(c23)C1=O)CCCN1C(=O)c2cccc3cccc(c23)C1=O.[Br-]	15
CNc1nc(NCc2ccccc2)nc(N)c1[N+](=O)[O-]	8.41
COc1ccc(S(=O)(=O)N2CCC(C(=O)Nc3cccc(C(C)=O)c3)CC2)cc1	-27.9
CSc1ccc(S(=O)(=O)NCCSc2ccccn2)cc1	-22.2
